Measurements from paper PMC12623972, “Loss of full-length DAZL isoform disrupts PABPC1-dependent translational regulation and meiosis” (Cell Death & Disease, 2025).

Biological target: T1, MYC-tagged DAZL_FL (mouse, UniProt Q64368 1-298)
T1 sequence (looked up): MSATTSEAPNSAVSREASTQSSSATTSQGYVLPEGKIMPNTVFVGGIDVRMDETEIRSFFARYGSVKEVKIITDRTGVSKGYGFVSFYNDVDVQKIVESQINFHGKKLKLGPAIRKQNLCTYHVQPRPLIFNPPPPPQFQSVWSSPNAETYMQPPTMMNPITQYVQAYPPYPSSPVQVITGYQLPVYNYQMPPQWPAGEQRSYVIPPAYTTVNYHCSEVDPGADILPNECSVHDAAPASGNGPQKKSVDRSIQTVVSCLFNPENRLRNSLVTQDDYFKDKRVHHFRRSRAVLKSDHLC
Assay: cell-based or functional assay

luciferase activity of the Mdc1 3' UTR reporter plasmid, DAZL_FL co-expressed with PABPC1 compared to DAZL_Sh co-expressed with PABPC1: > 1.7 fold | luciferase activity of the Psma8 3' UTR reporter plasmid, DAZL_FL co-expressed with PABPC1 compared to DAZL_Sh co-expressed with PABPC1: > 1.8 fold | luciferase activity of the Tex19.1 3' UTR reporter plasmid, DAZL_FL co-expressed with PABPC1 compared to DAZL_Sh co-expressed with PABPC1: > 1.6 fold
B1: HA-tagged PABPC1 (natural protein)
chain: not shown
